Experimental data reported in patent US4725577A, “Biologically active lysine containing octapeptides” (Administrators of the Tulane Educational Fund, priority 1986, dated 1988).
At least one peptide structure holds a part that was inferred or is arguable (an end, a ring closure or a residue).

Experiments:
GH Release = assay: in vivo growth hormone bioassay in pentobarbital-anesthetized male rats, s.c. injection, plasma GH by RIA; design: species or system rat
Experimental: The in vivo growth hormone bioassay utilized is as follows:
Male Charles River CD rats (200-300 g.) with free access to food and water were anesthetized with sodium pentobarbital (60 mg.kg intraperitoneally). Thirty minutes later saline or octapeptide is injected subcutaneously and blood samples are drawn from the jugular vein 15 minutes after subcutaneous injection. The plasma is separated and assayed for growth hormone by RIA as described above. This in vivo bioassay is a modification of the methods used by Schally, et al., "Hypothalamic Peptide Hormones: Basic and Clinical Studies", "Hormonal Proteins and Peptides", C. H. Li, ed. Academic Press, N.Y. 7: 1-54, 1978; Meyers, C. A., Murphy, W. A., Redding T. W., Coy, D. H. and Schally, A. V., Proc. Natl. Acad. Sci., USA 77: 6171, 1980; Murphy, W. A., Meyers, C. A. and Coy, D. H., Endoc. 109: 491, (1981) as well as Veber et al., Pro. Natl. Acad. Sci., USA 75: 2636-2640 (1978). For some analogs, doses as low as 0.02 μg/100 g. or even 0.005 μg/ 100 g. are active. The potency of the octapeptides of this invention relative to somatostatin is illustrated in Tables A, B and C. Single dose assays are shown in Table A and 4 point assays at 2 dose levels in Tables B and C.

Dunn osteosarcomas = assay: Dunn osteosarcoma model in C3H mice; format: in vivo; conditions: 2.5 μg/b.i.d.; C3H female mice
growth hormone release = assay: time course of growth hormone suppression in vivo in Nembutal-anesthetized male rats; design: species or system rat; conditions: 0.1 μg/100 g subcutaneously
Experimental: In order to determine the time course of the compounds of this invention, male rats are anesthetized with Nembutal and injected with saline or the test octapeptide as in the growth hormone potency assay above. Blood is collected from the jugular vein 15, 30, 45, 60, 90, 120 and 180 minutes post subcutaneous above. This time-course experiment for octapeptides on growth hormone release in vivo a significant suppression of plasma growth hormone. […] At the dose of 2 μg/100 g., the inhibitory effect of somatostatin on growth hormone release is no longer observed after 30 minutes (FIG. 1).

Row | Structure (SMILES) | GH-Level mean ± SEM (GH Release; Table A single dose assay, 0.05 μg/100 g B.W. s.c., 15 min after injection, saline control 754 ± 155) [ng/mL] | GH-Level mean ± SEM (GH Release; Table B four-point assay, 0.02 μg/100 g B.W., saline control 277 ± 166) [ng/mL] | GH-Level mean ± SEM (GH Release; Table B four-point assay, 0.08 μg/100 g B.W., saline control 277 ± 166) [ng/mL] | INHIBITION POTENCY GH in vivo (GH Release; Table C, relative potency, SS-14 = 100, based on 4-point assays) | growth of Dunn's osteosarcoma tumors (Dunn osteosarcomas) | duration of significant inhibition of growth hormone release (growth hormone release)
1 | CC(C)[C@H](NC(=O)[C@H](CCCCN)NC(=O)[C@@H](Cc1c[nH]c2ccccc12)NC(=O)[C@H](Cc1ccc(O)cc1)NC(=O)[C@H](CS)NC(=O)[C@H](N)Cc1ccccc1)C(=O)N[C@@H](CS)C(=O)N[C@H](C(N)=O)[C@@H](C)O [RC-121-2H, D-PheCysTyrD-TrpLysValCysThrNH2] | 61 ± 17 | 39 ± 10 | 21 ± 4 | 11800 | significantly inhibited growth | –
2 | CC(C)[C@@H]1NC(=O)[C@H](CCCCN)NC(=O)[C@@H](Cc2c[nH]c3ccccc23)NC(=O)[C@H](Cc2ccc(O)cc2)NC(=O)[C@@H](NC(=O)[C@H](N)Cc2ccccc2)CSSC[C@@H](C(=O)N[C@H](C(N)=O)[C@@H](C)O)NC1=O | – | – | – | – | – | at least 3 hours
